Test results taken from the RNAGym collection of RNA variant scans (doi:10.1093/nar/gkz1192).
Read counts are not given, so values of variants with three or more changes are uncertain.

B1: CPEB3 Ribozyme (parent)
chain: UAACAGGGGGCCACAGCAGAAGCGUUCACGUCGCAGCCCCUGUCAGAUUCUGGUGAAUCUGCGAAUUCUGCUGUAUAUCUC

Variants of: B1
Assay: self-cleavage, relative activity (ratio to wild type); higher = more cleavage; in vitro, sequencing
How it was run: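 Relative activity compares each variant's cleaved/total read fraction with that of the unmutated ribozyme. To get these fractions, barcoded CPEB3 ribozyme libraries from rounds of error-prone PCR were transcribed with T7 RNA polymerase for 5 hours at 37°C and then given 15 min of DNase I treatment before EDTA was added. The RNAs were reverse transcribed with template switching and sequenced on Illumina, and DNA sequencing linked barcodes to variants. A minimum of 5 reads applied, and three batches were averaged.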

Question: Which self-cleavage does the source give for UAACAGGGGGCCACAGCAGAAGCGUUCACGUCGCAGCCCCUGUCAGAUUCUGGUGAAUCCGCGAAUUCUGCCGUAUACCUC [U60C U72C U78C] here?
Answer: 0.69

Question: Which self-cleavage does the source give for UAACAGGGGGCCACAGCAGAAGCGUUCACGUCGCAGCCCCUGUCAGAUUCUGGUGAAUCAGCGAAUUCCGCUGUAUAACUC [U60A U69C U78A] here?
Answer: 0.3

Question: For UAACAGGGGGCCACAGCAGAAGCGUUCACGUCGCAGCCCCUGUCAGAUUCUGGUGAAUCUGCGGAUGCUGCCGUGUAUCUC [A64G U67G U72C A75G], which self-cleavage is on record?
Answer: 0.19

Question: With UAACAGGGGGCCACAGCAGAAGCGUUCACGUCGCAGCCCCUGUCAGAUUCUGGUGAAUCUGCGCAUUCCCCUGUAUAUCUC [A64C U69C G70C] as the variant, how does the self-cleavage read?
Answer: 0.24

Question: Which self-cleavage does the source give for UAACAGGGGGCCACAGCAGAAGCGUUCACGUCGCAGCCCCUGUCAGAUUCUGGUGAAUCUGCGGAUCCUGCCGUAUAUCUC [A64G U67C U72C] here?
Answer: 0.33

Question: For UAACAGGGGGCCACAGCAGAAGCGUUCACGUCGCAGCCCCUGUCAGAUUCUGGUGAAUCUGCGGGUUCCGCUGUAUAUCUC [A64G A65G U69C], which self-cleavage is on record?
Answer: 0.11

Question: For UAACAGGGGGCCACAGCAGAAGCGUUCACGUCGCAGCCCCUGUCAGAUUCUGGUGAAUCUGCGGAUCCUACUGUACAUCUC [A64G U67C G70A U76C], which self-cleavage is on record?
Answer: 0.21

Question: With UAACAGGGGGCCACAGCAGAAGCGUUCACGUCGCAGCCCCUGUCAGAUUCUGGUGAAUCUGCGGAUCCUGCUGUGUAUCUC [A64G U67C A75G] as the variant, how does the self-cleavage read?
Answer: 0.21

Question: For UAACAGGGGGCCACAGCAGAAGCGUUCACGUCGCAGCCCCUGUCAGAUUCUGGUGAAUCCGCGGAUUCUGCAGCAUAUCUC [U60C A64G U72A U74C], which self-cleavage is on record?
Answer: 0.28

Question: With UAACAGGGGGCCACAGCAGAAGCGUUCACGUCGCAGCCCCUGUCAGAUUCUGGUGAAUCUGCGGAUUCUGGUGUACAUCUC [A64G C71G U76C] as the variant, how does the self-cleavage read?
Answer: 0.28

Question: Which self-cleavage does the source give for UAACAGGGGGCCACAGCAGAAGCGUUCACGUCGCAGCCCCUGUCAGAUUCUGGUGAAUCUGUGAAUUCUGCCGUAUACCUC [C62U U72C U78C] here?
Answer: 0.23

Question: With UAACAGGGGGCCACAGCAGAAGCGUUCACGUCGCAGCCCCUGUCAGAUUCUGGUGAAUCCGCGAACUCUGCUGUAUCCCUC [U60C U66C A77C U78C] as the variant, how does the self-cleavage read?
Answer: 0.41

Question: Which self-cleavage does the source give for UAACAGGGGGCCACAGCAGAAGCGUUCACGUCGCAGCCCCUGUCAGAUUCUGGUGAAUCUGCGCAUUCCGCAGUAUACCUC [A64C U69C U72A U78C] here?
Answer: 0.22

Question: For UAACAGGGGGCCACAGCAGAAGCGUUCACGUCGCAGCCCCUGUCAGAUUCUGGUGAAUCUGCAAAUUCUGCAGUAAAUCUC [G63A U72A U76A], which self-cleavage is on record?
Answer: 0.53

Question: With UAACAGGGGGCCACAGCAGAAGCGUUCACGUCGCAGCCCCUGUCAGAUUCUGGUGAAUCUCAGAAUUCUGCUGUAUAUCCC [G61C C62A U80C] as the variant, how does the self-cleavage read?
Answer: 0.24

Question: For UAACAGGGGGCCACAGCAGAAGCGUUCACGUCGCAGCCCCUGUCAGAUUCUGGUGAAUCCGCGAGUUCUGCUGAAUAUCUC [U60C A65G U74A], which self-cleavage is on record?
Answer: 0.34

Question: With UAACAGGGGGCCACAGCAGAAGCGUUCACGUCGCAGCCCCUGUCAGAUUCUGGUGAAUCCGCGGAUCCUGCUGUAUAUCUC [U60C A64G U67C] as the variant, how does the self-cleavage read?
Answer: 0.38

Question: For UAACAGGGGGCCACAGCAGAAGCGUUCACGUCGCAGCCCCUGUCAGAUUCUGGUGAAUCUGCACAUCCUGCAGUAUAUCUC [G63A A64C U67C U72A], which self-cleavage is on record?
Answer: 0.22

Question: With UAACAGGGGGCCACAGCAGAAGCGUUCACGUCGCAGCCCCUGUCAGAUUCUGGUGAAUCUGCAAAUUCUGCGGUAUACCUC [G63A U72G U78C] as the variant, how does the self-cleavage read?
Answer: 1.07

Question: With UAACAGGGGGCCACAGCAGAAGCGUUCACGUCGCAGCCCCUGUCAGAUUCUGGUGAAUCUGCGGAUUCUGCAGUAAAUCUC [A64G U72A U76A] as the variant, how does the self-cleavage read?
Answer: 0.53

Question: Which self-cleavage does the source give for UAACAGGGGGCCACAGCAGAAGCGUUCACGUCGCAGCCCCUGUCAGAUUCUGGUGAAUCCGCGAAUUCUGCUGUAUGUCAC [U60C A77G U80A] here?
Answer: 0.71

Question: For UAACAGGGGGCCACAGCAGAAGCGUUCACGUCGCAGCCCCUGUCAGAUUCUGGUGAAUCUGUAAAUUCUGCAGUAUAUCUC [C62U G63A U72A], which self-cleavage is on record?
Answer: 0.27

Question: With UAACAGGGGGCCACAGCAGAAGCGUUCACGUCGCAGCCCCUGUCAGAUUCUGGUGAAUCUGCGGAUUCAGCUGCAUAUCUC [A64G U69A U74C] as the variant, how does the self-cleavage read?
Answer: 0.31

Question: For UAACAGGGGGCCACAGCAGAAGCGUUCACGUCGCAGCCCCUGUCAGAUUCUGGUGAAUCCGCGGAUUCUGCUGUUUACCUC [U60C A64G A75U U78C], which self-cleavage is on record?
Answer: 0.21

Question: For UAACAGGGGGCCACAGCAGAAGCGUUCACGUCGCAGCCCCUGUCAGAUUCUGGUGAAUCUACGAGUUCUGCUGUACAUCUC [G61A A65G U76C], which self-cleavage is on record?
Answer: 0.29

Question: For UAACAGGGGGCCACAGCAGAAGCGUUCACGUCGCAGCCCCUGUCAGAUUCUGGUGAAUCUGCAAAUUCCGCUGUAUAUCAC [G63A U69C U80A], which self-cleavage is on record?
Answer: 0.55

Question: Which self-cleavage does the source give for UAACAGGGGGCCACAGCAGAAGCGUUCACGUCGCAGCCCCUGUCAGAUUCUGGUGAAUCUGCCAACACUGCUGUAUAUCUC [G63C U66C U67A] here?
Answer: 0.21

Question: For UAACAGGGGGCCACAGCAGAAGCGUUCACGUCGCAGCCCCUGUCAGAUUCUGGUGAAUCUGUGGAUUCUGCUGUACAUCUC [C62U A64G U76C], which self-cleavage is on record?
Answer: 0.19

Question: With UAACAGGGGGCCACAGCAGAAGCGUUCACGUCGCAGCCCCUGUCAGAUUCUGGUGAAUCUGCUAAAUCUGCUAUAUAUCUC [G63U U66A G73A] as the variant, how does the self-cleavage read?
Answer: 0.84

Question: For UAACAGGGGGCCACAGCAGAAGCGUUCACGUCGCAGCCCCUGUCAGAUUCUGGUGAAUCUGGGAGUUCUGCCGUAUAUCUC [C62G A65G U72C], which self-cleavage is on record?
Answer: 0.39

Question: For UAACAGGGGGCCACAGCAGAAGCGUUCACGUCGCAGCCCCUGUCAGAUUCUGGUGAAUCUGCGGAUUCCGCUGAAUAUCUC [A64G U69C U74A], which self-cleavage is on record?
Answer: 0.3

Question: With UAACAGGGGGCCACAGCAGAAGCGUUCACGUCGCAGCCCCUGUCAGAUUCUGGUGAAUCUGCGGAUUCUGCUGUAUAUACC [A64G C79A U80C] as the variant, how does the self-cleavage read?
Answer: 1.07

Question: For UAACAGGGGGCCACAGCAGAAGCGUUCACGUCGCAGCCCCUGUCAGAUUCUGGUGAAUCCGCGAAUACUGCUGCAUAUCUC [U60C U67A U74C], which self-cleavage is on record?
Answer: 0.36

Question: Which self-cleavage does the source give for UAACAGGGGGCCACAGCAGAAGCGUUCACGUCGCAGCCCCUGUCAGAUUCUGGUGAAUCUGCGCACCCUGCUGUAUAUCUC [A64C U66C U67C] here?
Answer: 0.23
